Reference: article PMC4336329 (PLoS ONE, 2015)
About 2,200 (0.71%) of roughly 310,000 compounds showed an effect of 50% or more. The effect is printed as a negative number. This is one part of the list.

molecular target: human ether-à-go-go-related gene (hERG) potassium channel (human, UniProt Q12809); assay: primary screen, population patch clamp on CHO cells stably expressing hERG
Sequence (Q12809 whole entry, looked up): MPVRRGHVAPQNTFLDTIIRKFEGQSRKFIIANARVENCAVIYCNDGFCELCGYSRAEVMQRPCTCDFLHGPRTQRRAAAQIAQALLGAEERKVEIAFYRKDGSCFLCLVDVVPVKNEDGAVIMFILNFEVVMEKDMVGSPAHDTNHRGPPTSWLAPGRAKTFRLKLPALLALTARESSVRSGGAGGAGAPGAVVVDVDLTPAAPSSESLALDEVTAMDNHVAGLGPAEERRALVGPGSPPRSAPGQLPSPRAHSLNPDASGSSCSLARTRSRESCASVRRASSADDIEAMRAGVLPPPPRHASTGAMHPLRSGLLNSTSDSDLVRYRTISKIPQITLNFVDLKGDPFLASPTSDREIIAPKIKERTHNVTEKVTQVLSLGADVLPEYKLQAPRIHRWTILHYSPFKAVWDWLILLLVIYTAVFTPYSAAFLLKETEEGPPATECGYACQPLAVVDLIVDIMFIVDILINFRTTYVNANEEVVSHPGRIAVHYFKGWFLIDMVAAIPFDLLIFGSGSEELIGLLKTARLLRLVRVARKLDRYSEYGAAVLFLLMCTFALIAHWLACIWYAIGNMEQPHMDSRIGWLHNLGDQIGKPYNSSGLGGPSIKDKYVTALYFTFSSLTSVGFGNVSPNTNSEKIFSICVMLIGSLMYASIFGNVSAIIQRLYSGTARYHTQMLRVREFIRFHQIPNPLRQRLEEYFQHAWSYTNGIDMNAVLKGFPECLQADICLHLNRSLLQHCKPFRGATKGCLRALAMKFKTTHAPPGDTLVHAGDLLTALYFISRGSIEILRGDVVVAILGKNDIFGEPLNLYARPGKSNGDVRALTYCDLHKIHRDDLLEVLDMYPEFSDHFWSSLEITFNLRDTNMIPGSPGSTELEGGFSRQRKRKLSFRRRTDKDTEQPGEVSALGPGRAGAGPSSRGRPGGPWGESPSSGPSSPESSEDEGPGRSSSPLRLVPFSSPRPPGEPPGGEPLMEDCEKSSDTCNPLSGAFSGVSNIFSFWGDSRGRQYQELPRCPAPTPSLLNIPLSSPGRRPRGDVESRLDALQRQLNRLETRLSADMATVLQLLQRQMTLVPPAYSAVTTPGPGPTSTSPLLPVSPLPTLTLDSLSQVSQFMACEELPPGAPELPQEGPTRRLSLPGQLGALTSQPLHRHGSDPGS

Row | SMILES | hERG current change (%, negative = inhibition) at 1uM [%]
1 | O=C(Nc1ccc(Br)cc1)Nc1ccccc1Cl | 8.2
2 | O=c1c2cc(Br)cc(Br)c2oc2nc3n(c(=O)c12)CCCS3 | -1.16
3 | Cc1cc(C)cc(NC(=O)CSc2nnc(-c3ccc(S(=O)(=O)N4CCCC4)cc3)o2)c1 | 1.66
4 | Cc1ccccc1OCC(=O)NNC(=O)CSc1nc(N)cc(N)n1 | 8.37
5 | Cc1nn(-c2ccccc2Cl)c2sc(C(=O)Nc3nnc(C4CC4)s3)cc12 | 14.7
6 | COc1ccc(CCNC(=O)CCNC(=O)c2ccc(Cl)cc2)cc1OC | 7.25
7 | C/C(CC(=O)Nc1cccc(F)c1)=N\NC(=O)c1ccncc1 | 17.4
8 | CCOC(=O)c1cccc(NC(=O)CSc2nc3ccccc3c(=O)n2CCOC)c1 | -17.8
9 | Cc1cc(O)c(N=Cc2cc3c(cc2[N+](=O)[O-])OCO3)cc1C | 15.8
10 | O=C(COc1ccc(Cl)cc1)NCCCNC(=O)c1ccccn1 | 1.94
11 | CN(C)S(=O)(=O)c1ccc(N2CCCC2)c(C(=O)NCC2CCCCC2)c1 | 15.1
12 | O=C(COC(=O)Cc1ccc(Cl)c(Cl)c1)NCc1ccco1 | 8.65
13 | CN(CC(=O)N1CCOCC1)S(=O)(=O)c1ccc2ccccc2c1 | 15.9
14 | COC(=O)c1c(NC(NC(=O)C(C)C)C(Cl)(Cl)Cl)sc2c1CCCC2 (stereo not shown) | 3.52
15 | Cc1cccc(Cc2c(C)nc3nc(SCC(=O)NCc4ccco4)nn3c2C)c1 | -4.6
16 | Cc1nc(C)c(C(=O)N2CCCC(C(=O)c3cc(F)ccc3F)C2)s1 (stereo not shown) | 13.6
17 | COc1ccc2c(c1)cc(C(=O)N[C@@H](Cc1ccccc1)C(=O)O)n2C | 22.4
18 | CCCOc1ccc(C(=O)NCC2OCCc3ccccc32)cc1OC (stereo not shown) | 5.57
19 | Cc1ccc(CNc2ncnc3cc(Cl)ccc23)cc1 | 12.5
20 | COc1ccc(C(=O)NC(CC(=O)O)c2cc([N+](=O)[O-])ccc2Cl)c(SC)c1 (stereo not shown) | 17
21 | CCc1cc(=O)oc2cc(OC(C)C(=O)NCC(O)c3ccccc3)c(Cl)cc12 (stereo not shown) | 10.3
22 | O=C(Nc1ccc(N2CCOCC2)c(Cl)c1)c1ccc(F)cc1 | 3.51
23 | CCOC(=O)c1sc2nc3n(c(=O)c2c1C)CCCCC3 | 2.34
24 | C/C(=N\NC(=O)c1c(Br)c(C)nn1C)c1ccc(NC(=O)c2ccoc2C)cc1 | 15.3
25 | O=c1oc(-c2cccc(C(F)(F)F)c2)nn1-c1ccc(C(F)(F)F)cn1 | 5.56
26 | COc1ccc(C2(C)NC(=O)N(CC(=O)N3CCc4ccccc43)C2=O)cc1OC (stereo not shown) | 4.02
27 | Cc1cc(OCc2cc(C(=O)N(C)Cc3nonc3C)no2)cc(C)c1Cl | 18.2
28 | CCN(CC(=O)Nc1c(F)cccc1F)C(=O)Cc1ccsc1 | 5.42

Row | SMILES | hERG current change (%, negative = inhibition) at 1uM [%]
29 | CCOc1ccc(CCNC(=O)COC(=O)c2nc(Cl)ccc2Cl)cc1OCC | 7.43
30 | Nc1nnn(CC(=O)N/N=C/c2ccccc2)n1 | 10.6
31 | CCOC(=O)c1ccc(Nc2nnc(C)c3ccccc23)cc1 | 2.96
32 | Cc1ccc2nc(SC(C)C(=O)Nc3cccc([N+](=O)[O-])c3)[nH]c2c1 (stereo not shown) | 6.02
33 | COc1ccc(CCNC(=O)C2CC(c3cc(C(F)(F)F)cc(C(F)(F)F)c3)=NO2)cc1 (stereo not shown) | 4.15
34 | CCn1c(O)c(N=NC(=S)NCC2CCCO2)c2ccccc21 (stereo not shown) | 9.68
35 | O=C(Cn1cnc2cc([N+](=O)[O-])ccc2c1=O)NCCc1ccc(Cl)cc1 | 0.659
36 | Cn1c(CC(=O)Nc2ccccc2F)nnc1SCC(=O)Nc1nccs1 | 15.2
37 | CN(C)S(=O)(=O)c1cccc(NC(=O)CSc2nc3c(cc2C#N)C(=O)CC(C)(C)C3)c1 | 7.99
38 | COc1ccc(CNC(=O)Cn2ncn3c(cc4ccccc43)c2=O)cc1 | 4.96
39 | COc1ccc(N(CCC(=O)Nc2ccccc2F)S(=O)(=O)c2ccc(C)cc2C)cc1 | 10.1
40 | Cc1c(OCC(=O)NCC2CCC(C(=O)O)CC2)ccc2c(-c3ccccc3)cc(=O)oc12 (stereo not shown) | 19
41 | CCOc1ccc(NC(=O)CC2S/C(=N/N=C3CCCCCC3)NC2=O)cc1 (stereo not shown) | 19.2
42 | Cc1ccc(NS(=O)(=O)c2cccs2)nc1 | -3.66
43 | CCN(C#N)c1nc(NC(C)C)nc(NC(C)(C)C)n1 | 11.7
44 | CC(C)Sc1nnc(SCC(=O)NCCCN2CCCC2=O)s1 | 4.41
45 | C=CCC1NS(=O)(=O)OC(CCc2ccccc2)C1O (stereo not shown) | 5.53
46 | COC(=O)c1sc(N2C(=O)C(O)=C(C(=O)c3ccc(C)o3)C2c2ccc([N+](=O)[O-])cc2)nc1C (stereo not shown) | 10.1
47 | CC1=NN(c2cccc(Cl)c2)C(=O)C12CC(C)=C(C)CS2 (stereo not shown) | 14.1
48 | CS(=O)(=O)N1CCN(C(=O)Nc2ccccc2)CC1 | 18.2
49 | O=C1c2cccc([N+](=O)[O-])c2C(=O)N1c1c[nH]c(=O)[nH]c1=O | 9.03
50 | O=C1CC(N2CCN(C3CCc4ccccc4C3)CC2)C(=O)N1c1ccccc1 (stereo not shown) | -42.7
51 | COc1ccc(C(C#N)c2nc3ccccc3nc2Cl)cc1 (stereo not shown) | 5.81
52 | COc1cc(CN2CCC(C(=O)NCCC(C)C)CC2)ccc1OCc1ccccc1.O=C(O)C(=O)O | -46.6
53 | Cc1ccc(C(=O)Nc2ccc(Cl)cc2C(F)(F)F)c(Cl)c1 | 2.52
54 | CCc1ccc(-c2cc3c(=O)n(CC(=O)NCc4ccccc4F)ncn3n2)cc1 | 10.3
55 | CCCCN(CC)S(=O)(=O)c1ccc(C(=O)Nc2nnc(COC)o2)cc1 | 7.62
